Experimental data from patent publication US4480030A, “Tripeptide derivatives and their application in assaying enzymes” (Pentapharm A.G., priority 1980, dated 1984).
At least one peptide structure holds a part that was inferred or is arguable (an end, a ring closure or a residue). Square brackets hold non-standard residues; d marks the D form. Peptide text beside a SMILES is read from it. * marks the point of attachment. dAad = N[C@H](CCCC(=O)O)C(=O)O; pNA = O=[N+]([O-])c1ccc(N*)cc1; dNle = CCCC[C@@H](N)C(=O)O; 4Abz = Nc1ccc(C(=O)O)cc1; Cbz = O=C(OCc1ccccc1)*; OBn = c1ccc(CO*)cc1; Bn = c1ccc(C*)cc1; OtBu = CC(C)(C)O*; tBu = CC(C)(C)*; Moc = COC(=O)*

What follows are molecules tested against T1, bovine factor Xa (Bos taurus, UniProt P00743) (assay: Activity of bovine factor Xa solution on chromogenic/fluorogenic substrate (split product H-R5 released)). Settings: substrate concentration 2 × 10^-4; TRIS-imidazole buffer pH 8.4, ionic strength 0.3, 37° C.; factor Xa preparation "Diagen"; value calculated for 1 ml of factor Xa solution.
T1 construct: purchased Diagnostic Reagents Ltd., Thame, Great Britain factor Xa preparation "Diagen"
T1 sequence (P00743 234-492 limits assumed): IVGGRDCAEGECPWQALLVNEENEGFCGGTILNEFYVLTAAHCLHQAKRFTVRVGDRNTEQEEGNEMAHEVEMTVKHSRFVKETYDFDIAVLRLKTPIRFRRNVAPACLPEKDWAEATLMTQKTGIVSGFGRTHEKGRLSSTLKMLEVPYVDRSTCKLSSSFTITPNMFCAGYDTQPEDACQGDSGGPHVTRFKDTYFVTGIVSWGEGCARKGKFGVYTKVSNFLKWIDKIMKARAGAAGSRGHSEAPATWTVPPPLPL
T1 sequence (P00743 41-180 partner limits assumed): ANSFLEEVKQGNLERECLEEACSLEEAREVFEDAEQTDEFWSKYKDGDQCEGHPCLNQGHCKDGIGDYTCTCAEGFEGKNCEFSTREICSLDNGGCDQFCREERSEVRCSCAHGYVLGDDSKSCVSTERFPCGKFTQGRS
Type: biochemical
For `CC(C)C[C@@H](NC(=O)OCc1ccccc1)C(=O)NCC(=O)N[C@@H](CCCNC(=N)N)C(=O)Nc1cccc2c([N+](=O)[O-])cccc12` [Example 72, Cbo--D-Leu--Gly--Arg--5-NO2 --1-NA.HBr], the “Activity of 1 ml of aqueous solution of bovine factor Xa, expressed in nanomoles of split product H--R^5 released per minute” value (shortened to “Activity of 1 ml … per minute”) was 1180 nanomoles of split product H--. With `CC(C)C[C@@H](NS(C)(=O)=O)C(=O)NCC(=O)N[C@@H](CCCNC(=N)N)C(=O)Nc1cccc2c([N+](=O)[O-])cccc12` [Example 73, CH3 SO2 --D-Leu--Gly--Arg--5-NO2 --1-NA.AcOH] the “Activity of 1 ml … per minute” value was 1265 nanomoles of split product H--. For `CC(C)C[C@@H](NC(=O)OCc1ccccc1)C(=O)NCC(=O)N[C@@H](CCCNC(=N)N)C(=O)Nc1cccc2ncccc12` [Example 74, Cbo--D-Leu--Gly--Arg--5-ChA.HBr], the “Activity of 1 ml … per minute” value was 1005 nanomoles of split product H--. In the case of `CC(C)C[C@@H](NS(C)(=O)=O)C(=O)NCC(=O)N[C@@H](CCCNC(=N)N)C(=O)Nc1cccc2ncccc12` [Example 75, CH3 SO2 --D-Leu--Gly--Arg--5-ChA.AcOH], the “Activity of 1 ml … per minute” value is reported as 1145 nanomoles of split product H--. With `CC(C)C[C@@H](NC(=O)OCc1ccccc1)C(=O)NCC(=O)N[C@@H](CCCNC(=N)N)C(=O)Nc1ccc([N+](=O)[O-])c2ncccc12` [Example 76, Cbo--D-Leu--Gly--Arg--8-NO2 --5-ChA.HBr] the “Activity of 1 ml … per minute” value was 965 nanomoles of split product H--. In the case of `CC(C)C[C@@H](NS(C)(=O)=O)C(=O)NCC(=O)N[C@@H](CCCNC(=N)N)C(=O)Nc1ccc([N+](=O)[O-])c2ncccc12` [Example 77, CH3 SO2 --D-Leu--Gly--Arg--8-NO2 --5-ChA.AcOH], the “Activity of 1 ml … per minute” value is reported as 1080 nanomoles of split product H--. With `CCCCN(CC(=O)N[C@@H](CCCNC(=N)N)C(=O)Nc1ccc([N+](=O)[O-])cc1)C(=O)[C@@H](CCC)NC(=O)OC(C)(C)C` [Example 79, BOC--D-Nval--N(n-Bu)Gly--Arg--pNA.HBr] the “Activity of 1 ml … per minute” value was 850 nanomoles of split product H--. With `CC(C)C[C@@H](NS(=O)(=O)c1ccc2ccccc2c1)C(=O)NCC(=O)N[C@@H](CCCNC(=N)N)C(=O)Nc1ccc([N+](=O)[O-])cc1` [Example 80, β-Naphthyl--SO2 --D-Leu--Gly--Arg--pNA.HBr] the “Activity of 1 ml … per minute” value was 940 nanomoles of split product H--. In the case of `CCCC[C@@H](NC(=O)c1ccc(N)cc1)C(=O)NCC(=O)N[C@@H](CCCNC(=N)N)C(=O)Nc1ccc([N+](=O)[O-])cc1` [Example 81, 4-NH2 --Bz--D-Nleu--Gly--Arg--pNA.2HBr] (H-[4Abz][dNle]GR-pNA), the “Activity of 1 ml … per minute” value is reported as 495 nanomoles of split product H--. For `Cc1ccc(COC(=O)N[C@H](CC(C)C)C(=O)NCC(=O)N[C@@H](CCCNC(=N)N)C(=O)Nc2ccc([N+](=O)[O-])cc2)cc1` [Example 82, 4-Me-Cbo--D-Leu--Gly--Arg--pNA.AcOH], the “Activity of 1 ml … per minute” value was 2530 nanomoles of split product H--. For `CC(C)C[C@@H](NC(=O)OCc1ccc(Cl)cc1)C(=O)NCC(=O)N[C@@H](CCCNC(=N)N)C(=O)Nc1ccc([N+](=O)[O-])cc1` [Example 83, 4-Cl--Cbo--D-Leu--Gly--Arg--pNA.AcOH], the “Activity of 1 ml … per minute” value was 2480 nanomoles of split product H--. For `N=C(N)NCCC[C@H](NC(=O)CNC(=O)[C@@H](Cc1ccc(OCc2ccccc2)cc1)NC(=O)OCc1ccccc1)C(=O)Nc1ccc([N+](=O)[O-])cc1` [Example 85, Cbo--D-Tyr(OBzl)--Gly--Arg--pNA.HBr] (Cbz-[dY](Bn)-Gly-Arg-pNA), the “Activity of 1 ml … per minute” value was 690 nanomoles of split product H--. For `COC(=O)N[C@H](Cc1ccc(O)cc1)C(=O)NCC(=O)N[C@@H](CCCNC(=N)N)C(=O)Nc1ccc([N+](=O)[O-])cc1` [Example 86, CH3 O--CO--D-Tyr--Gly--Arg--pNA.AcOH] (Moc-[dY]-Gly-Arg-pNA), the “Activity of 1 ml … per minute” value was 890 nanomoles of split product H--. `CC(C)(C)OC[C@@H](NC(=O)OCc1ccccc1)C(=O)NCC(=O)N[C@@H](CCCNC(=N)N)C(=O)Nc1ccc([N+](=O)[O-])cc1` [Example 87, Cbo--D-Ser(OtBu)--Gly--Arg--pNA.AcOH] (Cbz-[dS](tBu)-Gly-Arg-pNA) was tested, and the “Activity of 1 ml … per minute” value was 330 nanomoles of split product H--. For `N=C(N)NCCC[C@H](NC(=O)CNC(=O)[C@@H](CO)NC(=O)OCc1ccccc1)C(=O)Nc1ccc([N+](=O)[O-])cc1` [Example 88, Cbo--D-Ser--Gly--Arg--pNA.AcOH] (Cbz-[dS]-Gly-Arg-pNA), the “Activity of 1 ml … per minute” value was 360 nanomoles of split product H--. `COC[C@@H](NC(=O)OCc1ccccc1)C(=O)NCC(=O)N[C@@H](CCCNC(=N)N)C(=O)Nc1ccc([N+](=O)[O-])cc1` [Example 89, Cbo--D-Ser(OMe)--Gly--Arg--pNA.AcOH] (Cbz-[dS](Me)-Gly-Arg-pNA) was tested, and the “Activity of 1 ml … per minute” value was 420 nanomoles of split product H--. For `N=C(N)NCCC[C@H](NC(=O)CNC(=O)[C@@H](COCc1ccccc1)NC(=O)OCc1ccccc1)C(=O)Nc1ccc([N+](=O)[O-])cc1` [Example 90, Cbo--D-Ser(OBzl)--Gly--Arg--pNA.AcOH] (Cbz-[dS](Bn)-Gly-Arg-pNA), the “Activity of 1 ml … per minute” value was 510 nanomoles of split product H--. In the case of `C[C@H](OC(C)(C)C)[C@@H](NC(=O)OCc1ccccc1)C(=O)NCC(=O)N[C@@H](CCCNC(=N)N)C(=O)Nc1ccc([N+](=O)[O-])cc1` [Example 91, Cbo--D-Thr(OtBu)--Gly--Arg--pNA.AcOH] (Cbz-[dT](tBu)-Gly-Arg-pNA), the “Activity of 1 ml … per minute” value is reported as 915 nanomoles of split product H--. `C[C@H](O)[C@@H](NC(=O)OCc1ccccc1)C(=O)NCC(=O)N[C@@H](CCCNC(=N)N)C(=O)Nc1ccc([N+](=O)[O-])cc1` [Example 92, Cbo--D-Thr--Gly--Arg--pNA.AcOH] (Cbz-[dT]-Gly-Arg-pNA) was tested, and the “Activity of 1 ml … per minute” value was 610 nanomoles of split product H--. With `CO[C@@H](C)[C@@H](NC(=O)OCc1ccccc1)C(=O)NCC(=O)N[C@@H](CCCNC(=N)N)C(=O)Nc1ccc([N+](=O)[O-])cc1` [Example 93, Cbo--D-Thr(OMe)--Gly--Arg--pNA.AcOH] (Cbz-[dT](Me)-Gly-Arg-pNA) the “Activity of 1 ml … per minute” value was 780 nanomoles of split product H--. With `C[C@H](OCc1ccccc1)[C@@H](NC(=O)OCc1ccccc1)C(=O)NCC(=O)N[C@@H](CCCNC(=N)N)C(=O)Nc1ccc([N+](=O)[O-])cc1` [Example 94, Cbo--D-Thr(OBzl)--Gly--Arg--pNA.AcOH] (Cbz-[dT](Bn)-Gly-Arg-pNA) the “Activity of 1 ml … per minute” value was 1020 nanomoles of split product H--. For `N=C(N)NCCC[C@H](NC(=O)CNC(=O)[C@@H](CC(=O)O)NC(=O)OCc1ccccc1)C(=O)Nc1ccc([N+](=O)[O-])cc1` [Example 95, Cbo--D-Asp--Gly--Arg--pNA] (Cbz-[dD]-Gly-Arg-pNA), the “Activity of 1 ml … per minute” value was 750 nanomoles of split product H--. With `COC(=O)CC[C@@H](NC(=O)OCc1ccccc1)C(=O)NCC(=O)N[C@@H](CCCNC(=N)N)C(=O)Nc1ccc([N+](=O)[O-])cc1` [Example 97, Cbo--D-Glu(γ-OMe)--Gly--Arg--pNA.AcOH] (Cbz-[dE](OMe)-Gly-Arg-pNA) the “Activity of 1 ml … per minute” value was 1880 nanomoles of split product H--. In the case of `COC(=O)C[C@@H](NC(=O)OCc1ccccc1)C(=O)NCC(=O)N[C@@H](CCCNC(=N)N)C(=O)Nc1ccc([N+](=O)[O-])cc1` [Example 98, Cbo--D-Asp(β-OMe)--Gly--Arg--pNA.AcOH] (Cbz-[dD](OMe)-Gly-Arg-pNA), the “Activity of 1 ml … per minute” value is reported as 1230 nanomoles of split product H--. With `N=C(N)NCCC[C@H](NC(=O)CNC(=O)[C@@H](CCC(=O)OCc1ccccc1)NC(=O)OCc1ccccc1)C(=O)Nc1ccc([N+](=O)[O-])cc1` [Example 99, Cbo--D-Glu(γ-OBzl)--Gly--Arg--pNA.AcOH] (Cbz-[dE](OBn)-Gly-Arg-pNA) the “Activity of 1 ml … per minute” value was 1990 nanomoles of split product H--. For `N=C(N)NCCC[C@H](NC(=O)CNC(=O)[C@@H](CC(=O)OCc1ccccc1)NC(=O)OCc1ccccc1)C(=O)Nc1ccc([N+](=O)[O-])cc1` [Example 100, Cbo--D-Asp(β-OBzl)--Gly--Arg--pNA.AcOH] (Cbz-[dD](OBn)-Gly-Arg-pNA), the “Activity of 1 ml … per minute” value was 1280 nanomoles of split product H--. For `CC(C)(C)OC(=O)CCC[C@@H](NC(=O)OCc1ccccc1)C(=O)NCC(=O)N[C@@H](CCCNC(=N)N)C(=O)Nc1ccc([N+](=O)[O-])cc1` [Example 101, Cbo--D-Aadi(δ-OtBu)-- Gly--Arg--pNA.AcOH] (Cbz-[dAad](OtBu)-Gly-Arg-pNA), the “Activity of 1 ml … per minute” value was 2080 nanomoles of split product H--. For `N=C(N)NCCC[C@H](NC(=O)CNC(=O)[C@@H](CCCC(=O)OCc1ccccc1)NC(=O)OCc1ccccc1)C(=O)Nc1ccc([N+](=O)[O-])cc1` [Example 103, Cbo--D-Aadi(δ-OBzl)--Gly--Arg--pNA.AcOH] (Cbz-[dAad](OBn)-Gly-Arg-pNA), the “Activity of 1 ml … per minute” value was 2260 nanomoles of split product H--.
